Test results from patent publication US20250177530A1 (UNIVERSITY OF PITTSBURGH OF THE COMMONWEALTH SYSTEM OF …, published 2025).

T1: human ENPP1 on the cell surface (293T-ENPP1 cells, HepG2 cells) (human, UniProt P22413 1-925)
T1 sequence: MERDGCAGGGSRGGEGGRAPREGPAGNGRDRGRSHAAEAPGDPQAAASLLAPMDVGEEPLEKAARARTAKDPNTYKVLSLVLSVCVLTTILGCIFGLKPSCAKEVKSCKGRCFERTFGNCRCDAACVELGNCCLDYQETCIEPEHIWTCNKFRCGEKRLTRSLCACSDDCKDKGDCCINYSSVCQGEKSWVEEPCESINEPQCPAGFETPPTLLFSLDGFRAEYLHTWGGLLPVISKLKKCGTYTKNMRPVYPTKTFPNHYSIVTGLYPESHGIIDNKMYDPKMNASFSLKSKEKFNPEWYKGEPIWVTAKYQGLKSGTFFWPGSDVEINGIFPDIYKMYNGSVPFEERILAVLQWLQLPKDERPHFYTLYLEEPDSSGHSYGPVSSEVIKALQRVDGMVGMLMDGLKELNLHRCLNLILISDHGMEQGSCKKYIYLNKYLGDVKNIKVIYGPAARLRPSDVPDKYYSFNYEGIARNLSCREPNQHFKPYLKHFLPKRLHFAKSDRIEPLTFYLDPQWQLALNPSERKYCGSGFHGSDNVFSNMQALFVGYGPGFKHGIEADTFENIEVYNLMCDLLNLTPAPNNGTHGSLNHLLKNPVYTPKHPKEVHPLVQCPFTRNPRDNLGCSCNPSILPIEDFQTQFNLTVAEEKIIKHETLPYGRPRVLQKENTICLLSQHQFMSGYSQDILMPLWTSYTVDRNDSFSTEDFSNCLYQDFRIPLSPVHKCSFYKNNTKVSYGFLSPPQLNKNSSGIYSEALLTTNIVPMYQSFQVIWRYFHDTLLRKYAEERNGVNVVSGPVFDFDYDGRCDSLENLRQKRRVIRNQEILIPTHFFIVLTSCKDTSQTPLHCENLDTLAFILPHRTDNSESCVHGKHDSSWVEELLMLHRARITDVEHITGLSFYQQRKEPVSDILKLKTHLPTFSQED

B1: MMAE-IgG1 17 (other)
heavy: QVQLVESGGGLVKPGGSLRLSCAASGFTFSDYYMSWIRQAPGKGLEWVSYISSSGSTIYYADSVKGRFTISRDNAKNSLYLQMNSLRAEDTAVYYCAREVYYYDSSGYYTYYFDYWGQGTLVTVSS[human IgG1 constant region not spelt out]
light: DIQMTQSPSSLSASVGDRVTITCRASQSISSYLNWYQQKPGKAPKLLIYAASSLQSGVPSRFSGSGSGTDFTLTISSLQPEDAATYYCQQYDTFPLTFGGGTKVEIKRTVAAPSVFIFPPSDEQLKSGTASVVCLLNNFYPREAKVQWKVDNALQSGNSQESVTEQDSKDSTYSLSSTLTLSKADYEKHKVYACEVTHQGLSSPVTKSFNRGEC
modifications: Osu-Glu-vc-PAB-MMAE conjugated; residues and chain not stated
B2: MMAE-IgG1 3G12 (other)
heavy: QVQLVESGGGLVKPGGSLRLSCAASGFTFSDYYMSWIRQAPGKGLEWVSYISSSGSTIYYADSVKGRFTISRDNAKNSLYLQMNSLRAEDTAVYYCAREVYYYDSSGYYTYYFDYWGQGTLVTVSS[human IgG1 constant region not spelt out]
light: DIQMTQSPSSLSASVGDRVTITCRASQSISSYLNWYQQKPGKAPKLLIYAASSLQSGVPSRFSGSGSGTDFTLTISSLQPEDVAVYYCQQYYTSRITFGQGTKLEIKRTVAAPSVFIFPPSDEQLKSGTASVVCLLNNFYPREAKVQWKVDNALQSGNSQESVTEQDSKDSTYSLSSTLTLSKADYEKHKVYACEVTHQGLSSPVTKSFNRGEC
modifications: Osu-Glu-vc-PAB-MMAE conjugated; residues and chain not stated

Target: T1, human ENPP1 on the cell surface …
Assay: cell-based or functional assay

Binder	IC50 of cell killing (relative cell viability) on HepG2 cells [nM]	IC50 of cell killing (relative cell viability, Cell Titer-Glo, 4 days) on 293T-ENPP1 cells [nM]
B1	~33	~13
B2	~80	~10
